# Measurements taken from publication PMC12820563, “FoxP3 forms a head-to-head dimer in vivo and stabilizes its multimerization on adjacent microsatellites”.
# This is one part of the list.
# Target: T1, MBP-FoxP1dN (Mus musculus, UniProt P58462 326-579)
# T1 sequence: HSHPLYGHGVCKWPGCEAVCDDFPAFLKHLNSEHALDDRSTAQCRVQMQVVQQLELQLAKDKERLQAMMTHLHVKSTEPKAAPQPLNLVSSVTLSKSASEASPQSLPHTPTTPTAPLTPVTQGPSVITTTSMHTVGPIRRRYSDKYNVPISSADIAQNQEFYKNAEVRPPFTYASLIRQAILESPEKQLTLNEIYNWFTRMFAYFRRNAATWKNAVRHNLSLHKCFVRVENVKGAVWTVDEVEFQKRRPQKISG
# Assay: PD-seq (MBP pull-down with sequencing); 20 mM Tris-HCl pH 7.5, 100 mM NaCl, 1.5 mM MgCl2, 0.4 uM protein, 0.1 uM dsDNA library, 30 min, room temperature, amylose pull-down; high values mean tight binding
# Conditions: protein: recombinant; tags: His6-MBP; chain copies: 2; dsDNA, one strand shown
# Outline: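 Binding is reads-per-million enrichment of pull-down over input, with replicates pooled. It comes from 30 min room-temperature incubation in Tris pH 7.5 buffer with NaCl and MgCl2 of 0.4 µM His6-MBP-tagged, N-terminally truncated mouse FoxP3 or FoxP1 fragment from E. coli with 0.1 µM Klenow-filled degenerate double-stranded DNA library, followed by amylose resin capture, three washes and Illumina sequencing of the released DNA.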
row,Sequence,binding signal
1,GATGATTGTTCTCCCAGCTGATGAATTGAGTACATCGAGTAAACAAATTTTCCTAATCTTTCTGTTCAAGCGCCATCTAC,1.05 RPM ratio (pull-down/input)
2,GATGATTGTTCTCCCAGCTGATGAATTGGCATCCTCGAGTAAACAAATTTTCCTAATCTTTCTGTTCAAGCGCCATCTAC,1.13 RPM ratio (pull-down/input)
3,GATGATTGTTCTCCCAGCTGATGAATTGGGGAATTCGAGTAAACAAATTTTCCTAATCTTTCTGTTCAAGCGCCATCTAC,0.883 RPM ratio (pull-down/input)
4,GATGATTGTTCTCCCAGCTGATGAATTCAGAGTCTCGAGTAAACAAATTTTCCTAATCTTTCTGTTCAAGCGCCATCTAC,0.756 RPM ratio (pull-down/input)
5,GATGATTGTTCTCCCAGCTGATGAATTACCTTACTCGAGTAAACAAATTTTCCTAATCTTTCTGTTCAAGCGCCATCTAC,0.996 RPM ratio (pull-down/input)
6,GATGATTGTTCTCCCAGCTGATGAATTTGTTAGTTCGAGTAAACAAATTTTCCTAATCTTTCTGTTCAAGCGCCATCTAC,1.78 RPM ratio (pull-down/input)
7,GATGATTGTTCTCCCAGCTGATGAATTACACCGCTCGAGTAAACAAATTTTCCTAATCTTTCTGTTCAAGCGCCATCTAC,1 RPM ratio (pull-down/input)
8,GATGATTGTTCTCCCAGCTGATGAATTTACGTTATCGAGTAAACAAATTTTCCTAATCTTTCTGTTCAAGCGCCATCTAC,1.44 RPM ratio (pull-down/input)
9,GATGATTGTTCTCCCAGCTGATGAATTGGCGAAGTCGAGTAAACAAATTTTCCTAATCTTTCTGTTCAAGCGCCATCTAC,0.806 RPM ratio (pull-down/input)
10,GATGATTGTTCTCCCAGCTGATGAATTGTAGCCTTCGAGTAAACAAATTTTCCTAATCTTTCTGTTCAAGCGCCATCTAC,0.968 RPM ratio (pull-down/input)
11,GATGATTGTTCTCCCAGCTGATGAATTAGCTCACTCGAGTAAACAAATTTTCCTAATCTTTCTGTTCAAGCGCCATCTAC,0.816 RPM ratio (pull-down/input)
12,GATGATTGTTCTCCCAGCTGATGAATTTCCCGGCTCGAGTAAACAAATTTTCCTAATCTTTCTGTTCAAGCGCCATCTAC,0.708 RPM ratio (pull-down/input)
13,GATGATTGTTCTCCCAGCTGATGAATTTCACAGCTCGAGTAAACAAATTTTCCTAATCTTTCTGTTCAAGCGCCATCTAC,0.793 RPM ratio (pull-down/input)
14,GATGATTGTTCTCCCAGCTGATGAATTTCTTTTTTCGAGTAAACAAATTTTCCTAATCTTTCTGTTCAAGCGCCATCTAC,0.916 RPM ratio (pull-down/input)
15,GATGATTGTTCTCCCAGCTGATGAATTAATCTCTTCGAGTAAACAAATTTTCCTAATCTTTCTGTTCAAGCGCCATCTAC,0.923 RPM ratio (pull-down/input)
16,GATGATTGTTCTCCCAGCTGATGAATTGACTAAATCGAGTAAACAAATTTTCCTAATCTTTCTGTTCAAGCGCCATCTAC,1.22 RPM ratio (pull-down/input)
17,GATGATTGTTCTCCCAGCTGATGAATTGCAGACCTCGAGTAAACAAATTTTCCTAATCTTTCTGTTCAAGCGCCATCTAC,0.943 RPM ratio (pull-down/input)
18,GATGATTGTTCTCCCAGCTGATGAATTGGAGATCTCGAGTAAACAAATTTTCCTAATCTTTCTGTTCAAGCGCCATCTAC,0.778 RPM ratio (pull-down/input)
19,GATGATTGTTCTCCCAGCTGATGAATTACGCTCTTCGAGTAAACAAATTTTCCTAATCTTTCTGTTCAAGCGCCATCTAC,0.974 RPM ratio (pull-down/input)
20,GATGATTGTTCTCCCAGCTGATGAATTACTTTATTCGAGTAAACAAATTTTCCTAATCTTTCTGTTCAAGCGCCATCTAC,1.15 RPM ratio (pull-down/input)
21,GATGATTGTTCTCCCAGCTGATGAATTAAATTTTTCGAGTAAACAAATTTTCCTAATCTTTCTGTTCAAGCGCCATCTAC,0.967 RPM ratio (pull-down/input)

row,Sequence,binding signal
1,GATGATTGTTCTCCCAGCTGATGAATTAGTCGGGTCGAGTAAACAAATTTTCCTAATCTTTCTGTTCAAGCGCCATCTAC,0.826 RPM ratio (pull-down/input)
2,GATGATTGTTCTCCCAGCTGATGAATTACGAAACTCGAGTAAACAAATTTTCCTAATCTTTCTGTTCAAGCGCCATCTAC,1.06 RPM ratio (pull-down/input)
3,GATGATTGTTCTCCCAGCTGATGAATTCAGGGACTCGAGTAAACAAATTTTCCTAATCTTTCTGTTCAAGCGCCATCTAC,0.719 RPM ratio (pull-down/input)
4,GATGATTGTTCTCCCAGCTGATGAATTGACACTATCGAGTAAACAAATTTTCCTAATCTTTCTGTTCAAGCGCCATCTAC,1.33 RPM ratio (pull-down/input)
5,GATGATTGTTCTCCCAGCTGATGAATTCAAGAAATCGAGTAAACAAATTTTCCTAATCTTTCTGTTCAAGCGCCATCTAC,0.981 RPM ratio (pull-down/input)
6,GATGATTGTTCTCCCAGCTGATGAATTGATGCCTTCGAGTAAACAAATTTTCCTAATCTTTCTGTTCAAGCGCCATCTAC,1.28 RPM ratio (pull-down/input)
7,GATGATTGTTCTCCCAGCTGATGAATTTTAGCGCTCGAGTAAACAAATTTTCCTAATCTTTCTGTTCAAGCGCCATCTAC,0.826 RPM ratio (pull-down/input)
8,GATGATTGTTCTCCCAGCTGATGAATTCCAGTATTCGAGTAAACAAATTTTCCTAATCTTTCTGTTCAAGCGCCATCTAC,0.979 RPM ratio (pull-down/input)
9,GATGATTGTTCTCCCAGCTGATGAATTGAGGGGGTCGAGTAAACAAATTTTCCTAATCTTTCTGTTCAAGCGCCATCTAC,0.767 RPM ratio (pull-down/input)
10,GATGATTGTTCTCCCAGCTGATGAATTGCCATCATCGAGTAAACAAATTTTCCTAATCTTTCTGTTCAAGCGCCATCTAC,1.1 RPM ratio (pull-down/input)
11,GATGATTGTTCTCCCAGCTGATGAATTAAAAGGGTCGAGTAAACAAATTTTCCTAATCTTTCTGTTCAAGCGCCATCTAC,0.793 RPM ratio (pull-down/input)
12,GATGATTGTTCTCCCAGCTGATGAATTTAACACATCGAGTAAACAAATTTTCCTAATCTTTCTGTTCAAGCGCCATCTAC,1.18 RPM ratio (pull-down/input)
13,GATGATTGTTCTCCCAGCTGATGAATTGACTCAGTCGAGTAAACAAATTTTCCTAATCTTTCTGTTCAAGCGCCATCTAC,0.938 RPM ratio (pull-down/input)
14,GATGATTGTTCTCCCAGCTGATGAATTAACCGCTTCGAGTAAACAAATTTTCCTAATCTTTCTGTTCAAGCGCCATCTAC,0.885 RPM ratio (pull-down/input)
15,GATGATTGTTCTCCCAGCTGATGAATTGCGCATCTCGAGTAAACAAATTTTCCTAATCTTTCTGTTCAAGCGCCATCTAC,1.43 RPM ratio (pull-down/input)
16,GATGATTGTTCTCCCAGCTGATGAATTTGGCCGGTCGAGTAAACAAATTTTCCTAATCTTTCTGTTCAAGCGCCATCTAC,0.768 RPM ratio (pull-down/input)
17,GATGATTGTTCTCCCAGCTGATGAATTCGAAGACTCGAGTAAACAAATTTTCCTAATCTTTCTGTTCAAGCGCCATCTAC,0.814 RPM ratio (pull-down/input)
18,GATGATTGTTCTCCCAGCTGATGAATTGAAAAGATCGAGTAAACAAATTTTCCTAATCTTTCTGTTCAAGCGCCATCTAC,0.856 RPM ratio (pull-down/input)
19,GATGATTGTTCTCCCAGCTGATGAATTCGGCCACTCGAGTAAACAAATTTTCCTAATCTTTCTGTTCAAGCGCCATCTAC,0.831 RPM ratio (pull-down/input)
20,GATGATTGTTCTCCCAGCTGATGAATTTCTCTCGTCGAGTAAACAAATTTTCCTAATCTTTCTGTTCAAGCGCCATCTAC,0.904 RPM ratio (pull-down/input)
21,GATGATTGTTCTCCCAGCTGATGAATTCGGAACATCGAGTAAACAAATTTTCCTAATCTTTCTGTTCAAGCGCCATCTAC,0.931 RPM ratio (pull-down/input)

row,Sequence,binding signal
1,GATGATTGTTCTCCCAGCTGATGAATTTGACCGCTCGAGTAAACAAATTTTCCTAATCTTTCTGTTCAAGCGCCATCTAC,0.8 RPM ratio (pull-down/input)
2,GATGATTGTTCTCCCAGCTGATGAATTGCGCACGTCGAGTAAACAAATTTTCCTAATCTTTCTGTTCAAGCGCCATCTAC,1.13 RPM ratio (pull-down/input)
3,GATGATTGTTCTCCCAGCTGATGAATTAGGAGCTTCGAGTAAACAAATTTTCCTAATCTTTCTGTTCAAGCGCCATCTAC,0.802 RPM ratio (pull-down/input)
4,GATGATTGTTCTCCCAGCTGATGAATTCGCTCGATCGAGTAAACAAATTTTCCTAATCTTTCTGTTCAAGCGCCATCTAC,0.875 RPM ratio (pull-down/input)
5,GATGATTGTTCTCCCAGCTGATGAATTGGGTGGTTCGAGTAAACAAATTTTCCTAATCTTTCTGTTCAAGCGCCATCTAC,0.853 RPM ratio (pull-down/input)
6,GATGATTGTTCTCCCAGCTGATGAATTACCATTTTCGAGTAAACAAATTTTCCTAATCTTTCTGTTCAAGCGCCATCTAC,1.18 RPM ratio (pull-down/input)
7,GATGATTGTTCTCCCAGCTGATGAATTCTTTCTATCGAGTAAACAAATTTTCCTAATCTTTCTGTTCAAGCGCCATCTAC,0.838 RPM ratio (pull-down/input)
8,GATGATTGTTCTCCCAGCTGATGAATTTTCCTATTCGAGTAAACAAATTTTCCTAATCTTTCTGTTCAAGCGCCATCTAC,0.987 RPM ratio (pull-down/input)
9,GATGATTGTTCTCCCAGCTGATGAATTGCGCGTGTCGAGTAAACAAATTTTCCTAATCTTTCTGTTCAAGCGCCATCTAC,1.09 RPM ratio (pull-down/input)
10,GATGATTGTTCTCCCAGCTGATGAATTGATGCTCTCGAGTAAACAAATTTTCCTAATCTTTCTGTTCAAGCGCCATCTAC,1.18 RPM ratio (pull-down/input)
11,GATGATTGTTCTCCCAGCTGATGAATTGACGTGTTCGAGTAAACAAATTTTCCTAATCTTTCTGTTCAAGCGCCATCTAC,1.21 RPM ratio (pull-down/input)
12,GATGATTGTTCTCCCAGCTGATGAATTGCATGGGTCGAGTAAACAAATTTTCCTAATCTTTCTGTTCAAGCGCCATCTAC,1 RPM ratio (pull-down/input)
13,GATGATTGTTCTCCCAGCTGATGAATTGGTAATTTCGAGTAAACAAATTTTCCTAATCTTTCTGTTCAAGCGCCATCTAC,1.15 RPM ratio (pull-down/input)
14,GATGATTGTTCTCCCAGCTGATGAATTCTTGTCATCGAGTAAACAAATTTTCCTAATCTTTCTGTTCAAGCGCCATCTAC,1.3 RPM ratio (pull-down/input)
15,GATGATTGTTCTCCCAGCTGATGAATTGTTACGCTCGAGTAAACAAATTTTCCTAATCTTTCTGTTCAAGCGCCATCTAC,1.18 RPM ratio (pull-down/input)
16,GATGATTGTTCTCCCAGCTGATGAATTAATTCGCTCGAGTAAACAAATTTTCCTAATCTTTCTGTTCAAGCGCCATCTAC,0.935 RPM ratio (pull-down/input)
17,GATGATTGTTCTCCCAGCTGATGAATTATATCTCTCGAGTAAACAAATTTTCCTAATCTTTCTGTTCAAGCGCCATCTAC,0.907 RPM ratio (pull-down/input)
18,GATGATTGTTCTCCCAGCTGATGAATTACGGTCTTCGAGTAAACAAATTTTCCTAATCTTTCTGTTCAAGCGCCATCTAC,1 RPM ratio (pull-down/input)
19,GATGATTGTTCTCCCAGCTGATGAATTTAATCCGTCGAGTAAACAAATTTTCCTAATCTTTCTGTTCAAGCGCCATCTAC,0.931 RPM ratio (pull-down/input)
20,GATGATTGTTCTCCCAGCTGATGAATTTATGGTATCGAGTAAACAAATTTTCCTAATCTTTCTGTTCAAGCGCCATCTAC,1.22 RPM ratio (pull-down/input)
21,GATGATTGTTCTCCCAGCTGATGAATTGATGCGATCGAGTAAACAAATTTTCCTAATCTTTCTGTTCAAGCGCCATCTAC,1.48 RPM ratio (pull-down/input)
